Data on 45 sequences can be found in the supplement of paper PMC11417369.

± gives the standard deviation of the averaged measurements. The list shows a part of the results.

The assay has as its system PfAP2-I AP2 domain 3 (GST-tagged). The experiment in a line: gcPBM binding intensity (ln(normalized median fluorescence intensity)); higher = stronger DNA binding. The essentials:
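Probes on an Agilent 4 × 180k array were primer-extended, double-stranded and 36 bp long, taken from intergenic genomic regions, with negative controls added. GST-tagged P. falciparum DNA-binding domains from E. coli, about 25 μg on average, were applied to the array for 1 h in 1× PBS containing 1% milk, 0.2 mg/ml BSA, 0.5% salmon testes DNA and 0.03% Triton X-100. Binding intensity, obtained after Alexa488 anti-GST antibody detection and a 488 nm scan, is the highest Masliner-normalised natural-log median intensity across replicate spots of either probe orientation.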
Take “ATATAAGAATTTAAGAGTACATTCACTTCAAATTTA [XGTACX_site2115]”: the “gcPBM binding intensity (ln)” value was determined as 7.58 ± 0.38.

For “AGGTGTATCATAAAATGTACATACATACATACATAA [XGTACX_site4479]”, the “gcPBM binding intensity (ln)” value was found to be 7.94 ± 0.57. With “TATTATTATTTTTTATGTACTAACGACAAAAATATT [XGTACX_site252]”, the “gcPBM binding intensity (ln)” value worked out at 7.86 ± 0.32. Under “TTGTAATTCATTCAAATATAAAATAAATAAATATGA [CACACA_negctrl_site349]” stands 7.38 ± 0.5; under “AAAATGTGCTTTTCAGTGCAATTTTTTTTGTAATAA [GTGCAC_site9566]”, 9.04 ± 0.32. To “TATTCTATAAATATATTTTTTTAATTTTTTATTTTA [CACACA_negctrl_site307]” belongs 7.58 ± 0.28; to “AAAAAAAAAAAAAAAGGTACAGTAAAAAATTCCTCT [XGTACX_site5947]”, 8.62 ± 0.5; to “AAATTTAATTTTATATCACACATTAAATTTTAATGG [CACACA_site4251]”, 7.65 ± 0.58. “ATAACATAACATAATACACACATATAAAAAAGAAAT [CACACA_site3028]”: the “gcPBM binding intensity (ln)” value was determined as 8.2 ± 0.58.

As for “ATATAATATATTTTCACACATATTTTATGATGATAA [CACACA_site5614]”, the “gcPBM binding intensity (ln)” value was 7.62 ± 0.32.

As to “TAATATATTGTAGATGCATGCATTAACTATTACAAA [TGCATGCA_site190]”, the “gcPBM binding intensity (ln)” value is 8.04 ± 0.52. On to “CGTATAAATAAATACACACACATATAAATATGTAAA [CACACA_site6236]”, for which the “gcPBM binding intensity (ln)” value was 7.59 ± 0.29. To “TATCAATGGAAAATATATATTTGTATATATGTAATA [XGTACX_negctrl_site257]” belongs 7.64 ± 0.7; to “GAAATTATTATATAAACACACATTTATTTTATTTTA [CACACA_site1957]”, 7.58 ± 0.56; to “GTATTATACCATAATGCATGTTAACTTCAAAAGAAA [TGCATGCA_site839]”, 8.04 ± 0.42. As for “ATAAAAATTAAAGAATGTACACATATAATATATGTA [XGTACX_site8735]”, the “gcPBM binding intensity (ln)” value was 7.64 ± 0.26. Under “AAAAGTTATAGACACACACACATATAAATATAGATT [CACACA_site6617]” stands 7.67 ± 0.64; under “TTGTTTCCTTAATATTCACACACATATATATAATAT [CACACA_site8553]”, 8.05 ± 0.71; under “ATAATCCTTAAACACACACACACACTAATAAATAAA [CACACA_site8052]”, 8.02 ± 0.42. Take TATAAATGTATACAAGTGCATATTATTCACACATAA: the “gcPBM binding intensity (ln)” value is 9.6 ± 0.13. For “TTTTAAAAAAATAAATAAATAGAAAAAAAAAATAAA [TGCATGCA_negctrl_site579]”, the “gcPBM binding intensity (ln)” value was 7.54 ± 0.38.

Take “GGATATATTTTATGTACACACATATATAACGGATAT [CACACA_site4847]”: the “gcPBM binding intensity (ln)” value was 8.05 ± 0.35. To “TATTATGACTTAAGTTGTACTGTTGAAAGAAGAAAA [XGTACX_site2985]” belongs 7.88 ± 0.53; to “AGCAACCCCCTAGCTACACACATATAGATATATATA [CACACA_site951]”, 8.75 ± 0.45. Under “TAAAATTTTTTTGTTTGTACATATATATATATAATA [XGTACX_site5609]” stands 7.88 ± 0.5. Consider “TATATATTATACACGTGTACACATTATAACAATATA [XGTACX_site7799]”, for which the “gcPBM binding intensity (ln)” value is 8.35 ± 0.45. With “TTTCCCTTAAATTAATGTACATAAATTGAAAATACC [XGTACX_site1602]”, the “gcPBM binding intensity (ln)” value came to 8.07 ± 0.45. To “TTGCCCCAGGAGTTCACACACATAATAGATTGTCAC [CACACA_site726]” belongs 7.79 ± 0.61.

As for “AAAAAAATAAATAAATACATACATATATATATGTAT [GTGCAC_negctrl_site510]”, the “gcPBM binding intensity (ln)” value worked out at 7.33 ± 0.51. With “AAAAAAAAAAAACACACACACAAAAAAAAATATATA [CACACA_site1105]”, the “gcPBM binding intensity (ln)” value was 7.81 ± 0.17. Under “AAGCTACACATAGATTATTATTAATTTAATGTATAT [CACACA_negctrl_site548]” stands 7.22 ± 0.57; under “TACGTGAAATTATATACACACATAAATATGTCTGTA [CACACA_site3122]”, 7.43 ± 0.42; under AATTATTAGCGTGGTGTGCACAAAATTATGGACACA, 9.84 ± 0.2.

For the sequence “ACAAGCTTTCATAAGGTGCAATGATTTAACAAAAAA [GTGCAC_site9726]”, the “gcPBM binding intensity (ln)” value came to 10.2 ± 0.16. “ACACATGACATCCGTTGTACAATCATCATAAAAATG [XGTACX_site5397]”: the “gcPBM binding intensity (ln)” value was determined as 8.24 ± 0.72.

With “AGCATTTATGAAAAATGTACACACATCAAATGCTTA [XGTACX_site8749]”, the “gcPBM binding intensity (ln)” value was 7.7 ± 0.38. As to “TATAAAAATAATATTACACACATGTAAAATGTCGGT [CACACA_site3264]”, the “gcPBM binding intensity (ln)” value is 7.71 ± 0.49. To “TGTAGAAATGGGTGCACACACATATATAATATATAT [CACACA_site2507]” belongs 10.3 ± 0.45; to “AACTCATCTTATAATTGTACATATTTATAAAAAGTA [XGTACX_site6522]”, 7.83 ± 0.47; to “TTAGGGATGCTGAAATGTACACATTTAAATTATATA [XGTACX_site3000]”, 7.91 ± 0.26. Under “AAAAAAAAAAAAAAAAAAAAAAAAAAAAAATATATA [GTGCAC_negctrl_site6]” stands 10.2 ± 0.17; under “AATGTAAAACTAATATGTACATATCTCTAAAGAAAT [XGTACX_site8429]”, 7.78 ± 0.51; under ATTGTCTTCCTTCTGGTGCGATGTATAGGTAAAGAT, 8.94 ± 0.19. For the sequence “CGTACTAACATAAAGACACACACCACATATAATAAA [CACACA_site3603]”, the “gcPBM binding intensity (ln)” value was found to be 7.96 ± 0.53. Under “CCATAAAAAGGTACATGTACAAAAAGCAAAAATATG [XGTACX_site5543]” stands 8.31 ± 0.69.
